In article PMC6212790:
Some of the results follow. At the low end of the ranking the order means little.

target: T1, GST-Rok (full length) (UniProt O34857); experiment: protein binding microarray; settings: Rok is a gene silencer of Bacillus subtilis; high values mean tight binding; most listed sequences are background and not binding sites; double strand, one strand shown;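 also: rank score from −0.5 (least bound) to 0.5 (best bound)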
T1 sequence: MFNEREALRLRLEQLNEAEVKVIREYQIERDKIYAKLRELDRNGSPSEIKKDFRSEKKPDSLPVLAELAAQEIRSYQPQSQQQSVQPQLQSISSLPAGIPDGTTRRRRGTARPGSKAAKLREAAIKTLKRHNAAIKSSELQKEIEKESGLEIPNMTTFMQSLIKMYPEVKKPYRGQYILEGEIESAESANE

Sequence | binding signal
TCTAAGAA | 0.0223 E-score
CATTAGGA | -0.194 E-score
CGCACGTC | -0.00235 E-score
AACGGTGC | -0.265 E-score
GGACTCGA | -0.158 E-score
ACTTGTAG | 0.185 E-score
ACTCAGCG | -0.163 E-score
CGTCAACA | -0.101 E-score
GTATCGAC | 0.0694 E-score
AGTCCAAA | -0.0624 E-score
CCCAGCCC | -0.479 E-score
GAGCGGAC | -0.331 E-score
GCCTTAAC | -0.0156 E-score
CTCTATGC | 0.00587 E-score
ATACACCC | 0.0834 E-score
TCCGGTAA | 0.0305 E-score
AGTTGGAG | -0.201 E-score
GGAGCCAA | -0.181 E-score
CAAGGTCA | -0.041 E-score
AGCCGCTA | -0.0418 E-score
GATTAATC | 0.163 E-score
GTGTTTAA | 0.047 E-score
CCAGGTCC | -0.222 E-score
GATCTTTA | 0.0516 E-score
GCCCTTCA | -0.242 E-score

Sequence | binding signal
TCGATAAA | 0.266 E-score
GACTTCCA | 0.105 E-score
AGGTTGAC | -0.156 E-score
CGGTGAGA | -0.151 E-score
CGTATTAG | 0.115 E-score
CATGTACA | 0.317 E-score
CGAGAAGA | -0.135 E-score
AATTTCCG | 0.0676 E-score
AAATAGGT | 0.311 E-score
GCGTGATA | 0.215 E-score
ATCCAAAT | 0.0276 E-score
ACGGACTG | -0.2 E-score
ATGGATTG | -0.0805 E-score
TGCGTTAA | 0.0752 E-score
ATCGGTGG | -0.018 E-score
ATACATCG | 0.2 E-score
GCGCCTTA | -0.327 E-score
AGCCCGGG | -0.309 E-score
AGGCCCTA | -0.18 E-score
AAACGACA | 0.173 E-score
AGCACGCA | 0.00389 E-score
ACTACGAC | 0.158 E-score
GACCAACA | -0.134 E-score
AGCAGAGG | -0.325 E-score
TCCACCGA | -0.225 E-score

Sequence | binding signal
ACAGATGT | 0.0663 E-score
TACGAGGA | -0.0862 E-score
ATCCGACC | -0.374 E-score
CAGTTCTA | 0.238 E-score
CTTAACCA | -0.046 E-score
ATCAGGTC | 0.135 E-score
GGCGGCAA | -0.305 E-score
ATCGTGAC | -0.0687 E-score
AACTTTAC | 0.278 E-score
CGATAGCC | -0.166 E-score
CTGTGCTA | -0.0616 E-score
CCGACTGA | -0.135 E-score
ACGTTTCT | 0.215 E-score
AAGCTACC | 0.291 E-score
CTCGGCAG | -0.145 E-score
CATATCTA | 0.293 E-score
GCTCGGCA | -0.191 E-score
ACCTGCTA | -0.0576 E-score
CACTAAGG | -0.142 E-score
ACGACGAT | 0.174 E-score
ACACAAAG | 0.147 E-score
TTTAAAAA | -0.124 E-score
CCCAAGGC | -0.323 E-score
CAGTGGGC | -0.23 E-score
ACAGACCA | -0.114 E-score

Sequence | binding signal
AGTTAAAA | 0.197 E-score
CCAACGCA | -0.176 E-score
CGGAGTGA | -0.203 E-score
GAAGTGGC | 0.0597 E-score
CCTGAGCA | -0.194 E-score
ATTTGCAC | 0.091 E-score
AGAGACTC | -0.169 E-score
AAGAGTTC | -0.0802 E-score
CCCTATGC | -0.243 E-score
AAATGGAT | 0.0511 E-score
AGCAGGGC | -0.221 E-score
ACTGGGGA | -0.167 E-score
CATCGCAA | 0.122 E-score
AGGGGTTA | -0.0953 E-score
AAGGGCAC | -0.268 E-score
AAAGGAGC | -0.287 E-score
AGAGACGC | -0.117 E-score
CTCTGAGA | -0.078 E-score
CTAAGTGA | -0.0596 E-score
GGGGTACC | -0.286 E-score
TGAAGCCA | 0.00954 E-score
CAAAATAA | 0.0897 E-score
ATACAGAA | 0.241 E-score
ATTAACAC | 0.079 E-score
GTGTTTTA | 0.15 E-score

Sequence | binding signal
GGCGGCCA | -0.406 E-score
CGGCGCAA | -0.186 E-score
CGCAGTTC | -0.239 E-score
AACCGTTA | 0.0486 E-score
ATGACTAG | 0.133 E-score
GGGACTAA | -0.0784 E-score
CTACTTGA | 0.115 E-score
GCTCTGTA | -0.0578 E-score
AGCTCATC | 0.213 E-score
GATTCATA | 0.295 E-score
ATTCCTGG | -0.229 E-score
AACGGTTC | 0.108 E-score
CATACTGC | 0.0219 E-score
ATCAATAC | 0.214 E-score
CCATAGTC | -0.0195 E-score
ACAGAATG | 0.13 E-score
ATGGGCGC | -0.193 E-score
ACCTGTGG | -0.229 E-score
TACAGACA | 0.0873 E-score
AGCCTTGA | -0.189 E-score
ATATGTAG | 0.391 E-score
AAGTGAGT | -0.0236 E-score
CCGTCCTC | -0.326 E-score
TGCAGCCA | -0.226 E-score
ATTCGCTG | -0.0928 E-score

Sequence | binding signal
CCCCTTAC | -0.353 E-score
AGAACCTA | 0.192 E-score
CGCAATCC | -0.197 E-score
GTCCGCGA | -0.198 E-score
TGAGCTAA | -0.0444 E-score
CCCAAGCG | -0.221 E-score
CTTTTCGC | 0.14 E-score
GCATATAC | 0.268 E-score
CAGAGAAC | 0.0182 E-score
CGCCCAAC | -0.14 E-score
GGTAGTCA | 0.125 E-score
AACAAAGT | 0.0602 E-score
GCCTCGCA | -0.343 E-score
GTGGGTCA | -0.244 E-score
GGGGAACC | -0.333 E-score
AAGTTAAT | 0.121 E-score
AACGAAAG | 0.0822 E-score
CTGTATCC | 0.0145 E-score
CCAAGGGA | -0.171 E-score
CCGTCCCG | -0.207 E-score
AATTGTCC | -0.017 E-score
CACCCCGG | -0.25 E-score
GATTATAA | 0.208 E-score
AAGCGTAT | 0.0405 E-score
GACTTATC | -0.039 E-score

Sequence | binding signal
AGGCGAAC | 0.0175 E-score
CGGTGGAA | -0.161 E-score
AGAGCCAT | -0.0273 E-score
TGGATCCA | 0.0351 E-score
GCCCGCCA | -0.36 E-score
GAAGATGA | 0.000716 E-score
AGGTCAAG | -0.0383 E-score
GTCGGGGA | -0.158 E-score
ACGGTGAT | 0.0851 E-score
GGGCAGCA | -0.184 E-score
TCCTAAGA | -0.179 E-score
CGAACGGA | -0.0292 E-score
CGCTCACC | -0.114 E-score
CGGATTTA | 0.0424 E-score
AGAAACCA | 0.0962 E-score
CACCCCTC | -0.399 E-score
ATGCCATG | -0.171 E-score
CAAAGAGC | -0.308 E-score
AGCGTAAG | -0.0616 E-score
ACAACGTA | 0.204 E-score
GAGGGCTA | -0.258 E-score
CGTTGCAC | -0.17 E-score
